Laboratory results reported in patent US9890126B2 (priority 2012, dated 2018).

Columns and labels:
Assay in all cases: microbe, parasite or virus in culture
P. falciparum D6 = conditions: Plasmodium falciparum, D6, 72 h, read-out: SYBR Green D6 IC50
P. falciparum C235 = conditions: Plasmodium falciparum, 72 h, read-out: SYBR Green C235 IC50
P. falciparum W2 = conditions: Plasmodium falciparum, W2, 72 h, read-out: SYBR Green W2 IC50

Oc1ccc(CCn2cncc2-c2ccc(O)cc2)cc1 [HGN-0048]
IC50 (P. falciparum D6): > 40 µM
IC50 (P. falciparum C235): > 40 µM
IC50 (P. falciparum W2): > 40 µM

O=C([O-])c1cnc(NCc2ccco2)nc1[O-].[Na+].[Na+] [HGN-0049]
IC50 (P. falciparum D6): 0.55 µM
IC50 (P. falciparum C235): 0.74 µM
IC50 (P. falciparum W2): 0.95 µM

Oc1ccc(-c2cncn2CCc2ccc(Cl)cc2)cc1 [HGN-0051]
IC50 (P. falciparum D6): 1.7 µM
IC50 (P. falciparum C235): 3.4 µM
IC50 (P. falciparum W2): 0.59 µM

OC(Cn1cnc(-c2ccccc2)c1-c1ccccc1)c1ccccc1 (stereo not drawn) [HGN-0060]
IC50 (P. falciparum D6): 1.6 µM
IC50 (P. falciparum C235): 2.7 µM
IC50 (P. falciparum W2): 3.1 µM

Cn1ccnc1C(O)Cc1ccccc1 (stereo not drawn) [HGN-0061]
IC50 (P. falciparum D6): 6.1 µM
IC50 (P. falciparum C235): 8.3 µM
IC50 (P. falciparum W2): 6.4 µM

CC(c1ccccc1)C(O)c1nccn1-c1ccccc1 (stereo not drawn) [HGN-0062]
IC50 (P. falciparum D6): 3.8 µM
IC50 (P. falciparum C235): 8.3 µM
IC50 (P. falciparum W2): 7.3 µM

OC(Cn1ccnc1-c1ccccc1)c1ccccc1 (stereo not drawn) [HGN-0063]
IC50 (P. falciparum D6): > 40 µM
IC50 (P. falciparum C235): > 40 µM
IC50 (P. falciparum W2): > 40 µM

Oc1ccc(-c2cncn2Cc2cccc(Cl)c2)cc1 [HGN-0090]
IC50 (P. falciparum D6): 5.8 µM
IC50 (P. falciparum C235): 6.15 µM
IC50 (P. falciparum W2): 3.94 µM

Oc1ccc(-c2cncn2Cc2ccccc2Cl)cc1 [HGN-0091]
IC50 (P. falciparum D6): 3.18 µM
IC50 (P. falciparum C235): 4.87 µM
IC50 (P. falciparum W2): 3.53 µM

Oc1ccc(-c2cncn2Cc2ccc(F)cc2)cc1 [HGN-0093]
IC50 (P. falciparum D6): 5.83 µM
IC50 (P. falciparum C235): 6.34 µM
IC50 (P. falciparum W2): 3.36 µM

Oc1ccc(-c2cncn2Cc2ccc(Cl)cc2)cc1 [HGN-0094]
IC50 (P. falciparum D6): 8.88 µM
IC50 (P. falciparum C235): 9.12 µM
IC50 (P. falciparum W2): 6.22 µM

Oc1ccc(-c2cncn2CCc2ccc(F)cc2)cc1 [HGN-0095]
IC50 (P. falciparum D6): 6.1 µM
IC50 (P. falciparum C235): 6.59 µM
IC50 (P. falciparum W2): 4.05 µM

Oc1ccc(-c2cncn2CCc2ccccc2Cl)cc1 [HGN-0096]
IC50 (P. falciparum D6): 9.8 µM
IC50 (P. falciparum C235): 12.9 µM
IC50 (P. falciparum W2): 7.9 µM

Oc1ccc(-c2cncn2CCc2cccc(F)c2)cc1 [HGN-0097]
IC50 (P. falciparum D6): 10.2 µM
IC50 (P. falciparum C235): 5.18 µM
IC50 (P. falciparum W2): 2.12 µM

Oc1ccc(-c2cncn2CCc2ccc(Cl)cc2Cl)cc1 [HGN-0099]
IC50 (P. falciparum D6): 5.36 µM
IC50 (P. falciparum C235): 5.44 µM
IC50 (P. falciparum W2): 4.25 µM

Oc1ccc(-c2cncn2CCc2ccc(Cl)c(Cl)c2)cc1 [HGN-0100]
IC50 (P. falciparum D6): 4.28 µM
IC50 (P. falciparum C235): 9.37 µM
IC50 (P. falciparum W2): 5.65 µM

Nc1ccn([C@@H]2O[C@H](CNC(=O)Cc3cn4ccsc4n3)[C@@H](O)[C@H]2O)c(=O)n1 [HGN-0102]
IC50 (P. falciparum D6): > 40 µM
IC50 (P. falciparum C235): > 40 µM
IC50 (P. falciparum W2): > 40 µM

Oc1ccc(-c2cncn2Cc2ccccc2F)cc1 [HGN-0106]
IC50 (P. falciparum D6): 3 µM
IC50 (P. falciparum C235): 3.52 µM
IC50 (P. falciparum W2): 4.1 µM

Oc1ccc(-c2cncn2CCc2ccccc2F)cc1 [HGN-0107]
IC50 (P. falciparum D6): 5.65 µM
IC50 (P. falciparum C235): 7.29 µM
IC50 (P. falciparum W2): 4.09 µM

Oc1ccc(-c2cncn2CCc2cccc(Cl)c2)cc1 [HGN-0108]
IC50 (P. falciparum D6): 11.5 µM
IC50 (P. falciparum C235): 13.8 µM
IC50 (P. falciparum W2): 7.22 µM

Oc1ccc(-c2cncn2Cc2cccc(F)c2)cc1 [HGN-0109]
IC50 (P. falciparum D6): 4.8 µM
IC50 (P. falciparum C235): 5.74 µM
IC50 (P. falciparum W2): 3.16 µM

CCOC(=O)c1cnc(NCCc2ccc(F)cc2)[nH]c1=O [HGN-0111]
IC50 (P. falciparum D6): > 40 µM
IC50 (P. falciparum C235): > 40 µM
IC50 (P. falciparum W2): > 40 µM

CCOC(=O)c1cnc(NCc2ccc(F)cc2)[nH]c1=O [HGN-0113]
IC50 (P. falciparum D6): 29.3 µM
IC50 (P. falciparum C235): > 40 µM
IC50 (P. falciparum W2): > 40 µM

CCOC(=O)c1cnc(NCCc2cccc(F)c2)[nH]c1=O [HGN-0115]
IC50 (P. falciparum D6): 17.4 µM
IC50 (P. falciparum C235): 27.6 µM
IC50 (P. falciparum W2): 17.6 µM

CCOC(=O)c1cnc(NCc2ccccc2Cl)[nH]c1=O [HGN-0121]
IC50 (P. falciparum D6): 34.5 µM
IC50 (P. falciparum C235): > 40 µM
IC50 (P. falciparum W2): > 40 µM

CCOC(=O)c1cnc(NCc2ccc(Cl)cc2)[nH]c1=O [HGN-0125]
IC50 (P. falciparum D6): > 40 µM
IC50 (P. falciparum C235): 19.7 µM
IC50 (P. falciparum W2): 16 µM

O=C([O-])c1cnc(NCc2ccc(Cl)cc2)nc1[O-].[Na+].[Na+] [HGN-0126]
IC50 (P. falciparum D6): > 40 µM
IC50 (P. falciparum C235): > 40 µM
IC50 (P. falciparum W2): > 40 µM

CCOC(=O)c1cnc(NCc2cc(Cl)ccc2Cl)[nH]c1=O [HGN-0127]
IC50 (P. falciparum D6): > 40 µM
IC50 (P. falciparum C235): > 40 µM
IC50 (P. falciparum W2): 17.7 µM

CCOC(=O)c1cnc(NCc2ccc(Cl)c(Cl)c2)[nH]c1=O [HGN-0129]
IC50 (P. falciparum D6): 26.9 µM
IC50 (P. falciparum C235): 33 µM
IC50 (P. falciparum W2): 13.2 µM

CCOC(=O)c1cnc(NCc2ccccc2F)[nH]c1=O [HGN-0133]
IC50 (P. falciparum D6): > 40 µM
IC50 (P. falciparum C235): > 40 µM
IC50 (P. falciparum W2): > 40 µM
